In PMC10188589 one finds binding data, which are given here for one molecule.

Results are given in words; binding and its absence hold for the method and conditions named. Binding seen in cells or lysates may run through a third protein. Sequences can lack the tags named with a protein.

In this test the target is T1, HA-cGAS (human), Q8N884.
T1 chain: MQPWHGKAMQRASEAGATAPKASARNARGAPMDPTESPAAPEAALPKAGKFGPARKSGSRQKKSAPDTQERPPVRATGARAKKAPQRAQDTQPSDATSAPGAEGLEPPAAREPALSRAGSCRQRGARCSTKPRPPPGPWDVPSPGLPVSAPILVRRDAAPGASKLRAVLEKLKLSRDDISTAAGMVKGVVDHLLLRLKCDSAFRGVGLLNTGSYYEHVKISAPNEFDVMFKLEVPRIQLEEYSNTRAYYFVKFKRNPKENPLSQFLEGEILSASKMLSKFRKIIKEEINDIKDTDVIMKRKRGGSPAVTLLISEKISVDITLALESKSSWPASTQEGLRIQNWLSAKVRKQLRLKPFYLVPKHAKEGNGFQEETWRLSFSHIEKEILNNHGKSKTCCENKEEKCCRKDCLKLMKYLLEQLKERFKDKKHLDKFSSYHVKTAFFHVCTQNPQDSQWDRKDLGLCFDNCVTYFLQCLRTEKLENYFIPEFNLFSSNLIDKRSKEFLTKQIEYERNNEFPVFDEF
Put plainly: co-IP; HA immunoprecipitation from lysates of HEK293T cells co-expressing HA-cGAS and GFP-PRMT constructs; EBC lysis buffer (50 mM Tris pH 7.5, 120 mM NaCl, 0.5% NP-40), 4 °C, four washes with NETN buffer; immunoblot. To be noted: remark: other sources report otherwise. (In western blotting, separated proteins are transferred to a membrane and probed.)

B1: GFP-PRMT3, O60678 1-531 (enzyme)
chain: MCSLASGATGGRGAVENEEDLPELSDSGDEAAWEDEDDADLPHGKQQTPCLFCNRLFTSAEETFSHCKSEHQFNIDSMVHKHGLEFYGYIKLINFIRLKNPTVEYMNSIYNPVPWEKEEYLKPVLEDDLLLQFDVEDLYEPVSVPFSYPNGLSENTSVVEKLKHMEARALSAEAALARAREDLQKMKQFAQDFVMHTDVRTCSSSTSVIADLQEDEDGVYFSSYGHYGIHEEMLKDKIRTESYRDFIYQNPHIFKDKVVLDVGCGTGILSMFAAKAGAKKVLGVDQSEILYQAMDIIRLNKLEDTITLIKGKIEEVHLPVEKVDVIISEWMGYFLLFESMLDSVLYAKNKYLAKGGSVYPDICTISLVAVSDVNKHADRIAFWDDVYGFKMSCMKKAVIPEAVVEVLDPKTLISEPCGIKHIDCHTTSISDLEFSSDFTLKITRTSMCTAIAGYFDIYFEKNCHNRVVFSTGPQSTKTHWKQTVFLLEKPFSVKAGEALKGKVTVHKNKKDPRSLTVTLTLNNSTQTYGLQ
As to B1, the binding entry was “no binding”.
